In PubChem BioAssay AID1347073 (National Center for Advancing Translational Sciences (NCATS), 2019):
In all, about 45,000 compounds went through this assay and about 200 (0.44%) were called active. Roughly 7% stayed inconclusive and do not appear here. The call rests on the fitted dose curve; in most records, active means well fitted activation curve with a large enough effect; inconclusive means small, poorly fitted or top-dose-only effect; inactive means no such curve, though single readings can be large or run the other way. This is one part of the list.

Assay: qHTS of TDP-43 Inhibitors: NCGC Sytravon Library Screen; further: 0% is about no effect; nearly all actives have a fitted effect of over 55% in size
Conditions: yeast TDP-43 toxicity rescue, BacTiter-Glo growth, 24 h; series mostly up to 46.1 µM; growth rescue (activation): at the top concentration
Outline: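 TDP-43-expressing yeast, pregrown in raffinose, seeded at OD600 0.02 in galactose medium with compound for 24 hr at 30 deg C. Growth read by BacTiter-Glo luminescence, so rescue of toxicity appears as activation.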

SMILES | growth rescue (activation)
O=C(c1ccc([N+](=O)[O-])s1)N1CCc2ccccc21 | inactive: 27.8%
NC(=O)c1c(NC(=O)c2cccnc2)sc2c1CCCC2 | inactive: 8.09%
Cc1ccc(-c2[nH]ncc2/C=N/n2c(COc3ccccc3)nc3ccccc3c2=O)cc1 | inactive: 10.7%
O=C(O)CCC(=O)N1CCN(c2nc(-c3ccccc3Cl)c3cc(Br)ccc3n2)CC1 | inactive: -16.9%
CC(C)Oc1ccccc1OCCCOc1cccc2cccnc12 | inactive: 10.9%
COC(=O)CSc1[nH]c(=O)cc(C)c1C#N | inactive: -3.53%
CCC(Oc1ccccc1F)C(=O)NCCN1CCOCC1 (stereo not drawn) | inactive: 0.028%
CC(C)c1ccc(CCNC(=O)c2ccc([N+](=O)[O-])cc2)cc1 | inactive: 4.31%
O=C(O)COc1c(-c2ccco2)oc2ccccc2c1=O | inactive: 0.0801%
Cc1ccc(NC(N)=S)cc1C | inactive: 9%
CSc1ccc(CN2CCC2(C)C(=O)Nc2ccc3c(c2)OCO3)cc1 (stereo not drawn) | inactive: 2.09%
CC(NC(=O)c1ccc(Cl)cc1)c1nnc(SCC(=O)NC2=NCCS2)n1C (stereo not drawn) | inactive: -30%
Cc1csc(NC(=O)CSc2sc3c(O)cc(=O)[nH]c3c2C#N)n1 | inactive: 4.82%
O=C1NCCCc2nc(Oc3ccccc3)sc21 | inactive: 5.48%
CCC(C)(C)NC(=O)C(c1ccc(OC)cc1)N(Cc1ccccc1)C(=O)CCC(=O)Nc1cc(C)on1 (stereo not drawn) | inactive: 10.5%
O=[N+]([O-])c1ccccc1-n1cnc2ccccc21 | inactive: -13.2%
O=c1[nH]c(-c2ccc(F)cc2)nc2c1sc(=S)n2-c1ccccc1 | inactive: 7.03%
O=C(Nc1nccs1)[C@@H]1CCCN1S(=O)(=O)c1ccccc1F | inactive: 15.2%
Cc1nc(CN2CCN(C(=O)CCc3nnc(Cc4c[nH]c5ccccc45)o3)CC2)cs1 | inactive: 5.06%
CC1=NN(c2ccccc2)C(=O)/C1=C/c1cccc(C)c1 | inactive: -6.17%
Cc1cccc(C(=O)OCc2cncs2)c1 | inactive: 17%
COc1cc2nc(CN3CCN(S(=O)(=O)c4ccccc4C(F)(F)F)CC3)[nH]c(=O)c2cc1OC | inactive: -3.12%
CCOC(=O)c1c(C(F)(F)F)cc(-c2ccc(F)cc2)nc1C | inactive: -0.91%

SMILES | growth rescue (activation)
COc1cc(C)ccc1S(=O)(=O)NC(=O)C1(C)CCN1C(=O)Cc1ccc(C(C)(C)C)cc1 (stereo not drawn) | inactive: 11.7%
O=C(COC(=O)C1(c2ccc(Cl)cc2)CCCC1)N1CCc2ccccc21 | inactive: -21.6%
Cn1c(SC/C=C/c2ccccc2)nnc1-c1cnccn1 | inactive: -9.28%
NS(=O)(=O)c1ccc(CNC(=O)/C=C/c2cccc(Cl)c2)cc1 | inactive: 24.3%
O=C(CN(Cc1ccc(F)cc1)C(=O)CNS(=O)(=O)c1ccc(F)cc1)NCc1ccco1 | inactive: 7.63%
COc1ccc(N2C(=O)C3C(C2=O)C2C=CC3C23CC3)c([N+](=O)[O-])c1 (stereo not drawn) | inactive: 29.6%
Cc1cccc(-c2cc(N3CCCN(C)CC3)n3nccc3n2)c1 | inactive: -3.18%
CCN(CC(=O)NCc1ccc(Cl)cc1)C(=O)/C=C/c1ccccc1 | inactive: 0.341%
CCOC(=O)COc1ncn(-c2ccccc2)n1 | inactive: -4.79%
Clc1ccc(-n2nnnc2CN2CCOCC2)cc1Cl | inactive: 17.2%
CC(C)C(=O)N1CCN(c2ccccc2NC(=O)c2ccc3c(c2)OCCO3)CC1 | inactive: -2.65%
O=C(N/C(=C\c1ccco1)C(=O)N1CCCC1CO)c1ccccc1 (stereo not drawn) | inactive: -8.14%
COc1cccc(CN2CCNC(=O)C2CC(=O)N(C)CCC2CCOCC2)c1OC (stereo not drawn) | inactive: 5.25%
O=C(COC(=O)C1CCCC1)NCc1ccc(Cl)cc1 | inactive: 1.66%
CCOc1ccc(NC(=O)CN(C)C(=O)c2cc(C3CC3)nn2-c2ccccc2)cc1OCC | inactive: 0.974%
COc1cc(NS(=O)(=O)c2ccc(NC(=O)c3ccc(Cl)cc3Cl)cc2)ncn1 | inactive: 0.532%
COc1ccc(C)cc1NC(=O)C(OC(=O)c1cc(C)oc1C)c1ccccc1 (stereo not drawn) | inactive: -24.9%
O=c1oc2ccccc2c(O)c1/C=N/c1ccccn1 | inactive: -0.482%
CCc1nc2c(OCCOC)cccn2c1N(C)C(=O)c1ccco1 | inactive: -0.957%
C/C=C/c1ccc(OCCOc2ccc(C=O)cc2)c(OC)c1 | inactive: 18.6%
CC1(C)Oc2ccc(C(=O)NNC(=O)Nc3ccccc3)cc2NC1=O | inactive: -7.92%
COc1ccc(/C=C2\SC(=O)N(CC(=O)NN3CCN(C)CC3)C2=O)cc1OC | inactive: -14.8%
Cn1c(N)c(-c2ccccc2)c2ccc([N+](=O)[O-])cc2c1=O | inactive: 16.6%

SMILES | growth rescue (activation)
COc1ccccc1N(CC(O)CN1CCCCC1)S(=O)(=O)c1ccc(C)cc1 (stereo not drawn) | inactive: 17.6%
CN(C)C(CNC(=S)Nc1ccc(Cl)cc1)c1cccnc1 (stereo not drawn) | inactive: -11.6%
C=C(C)[C@@H]1CC=C(CN2CCC(CCOC)(C(=O)OCC)CC2)CC1 | inactive: 1.81%
CC(=O)OC1OCCOC1NC(=S)Nc1ccc(C)cc1 (stereo not drawn) | inactive: -7.97%
COc1ccc(CNC(=O)N2CCN(S(=O)(=O)c3ccc(C)cc3C)CC2)cc1 | inactive: 25.5%
COc1ccc(N(C(=O)c2snc(C(N)=O)c2N)C(C(=O)NC2CCCC2)c2ccc(C)o2)c(OC)c1 (stereo not drawn) | inactive: 10.2%
COc1ccc(N(CC(=O)NC2CCCCC2)C(=O)CNC(=O)c2cccs2)cc1OC | inactive: 9.42%
COc1cc(Cl)ccc1OC1(C)CCN(Cc2ccccc2OC(F)F)C1 (stereo not drawn) | inactive: -5.03%
Cc1nnc(SCC(=O)NNC(=O)c2ccc(F)cc2)n1Cc1ccccc1 | inactive: -12.3%
O=[N+]([O-])c1cc(S(=O)(=O)N2CCOCC2)ccc1OCc1ccccc1C(F)(F)F | inactive: 14.7%
COc1ccc(CC(C#N)(CO)c2nc3ccccc3[nH]2)cc1 (stereo not drawn) | inactive: -3.4%
COC(=O)c1ccccc1NCC(=O)c1ccc(OC)cc1 | inactive: 12.9%
CC(C)NC(=O)CN1CCN(Cc2nc(-c3cccs3)no2)CC1 | inactive: -11.8%
COc1ccc(S(=O)(=O)N2CCC(C(=O)NCc3cccnc3)CC2)cc1C | inactive: -2.47%
COc1ccc(C(=O)N2CCN(Cc3ccc(OC)c(OC)c3)CC2)cc1 | inactive: 5.17%
CCC/C=N/Nc1nnc(Cc2ccc(OC)c(OC)c2)c(=O)[nH]1 | inactive: 0.389%
O=C(O)CC1(CC(=O)Nc2cccc(C(F)(F)F)c2)CCCC1 | inactive: 19.5%
CCOc1ccc(-c2[nH]nc3c2C(c2ccc4c(c2)OCO4)C(C#N)=C(N)O3)cc1OC (stereo not drawn) | inactive: 17.5%
O=C(Cc1ccc(F)cc1)Nc1c2c(nn1-c1cccc(Cl)c1)CS(=O)C2 (stereo not drawn) | inactive: 30%
O=C(O)CN1C(=O)C2C3CC(C2C1=O)C1C(c2ccccc2)c2sc(=O)[nH]c2SC31 (stereo not drawn) | inactive: 17%
Cc1ccc(NC(=O)COC(=O)c2ccc3c(c2)OCO3)cc1S(=O)(=O)N1CCCCC1 | inactive: 0.988%
Cc1cccn2c(CN(C)CC3CCCCO3)c(C(=O)N3CCCCC3)nc12 (stereo not drawn) | inactive: -1.09%
